# Assay results: PubChem BioAssay (NCATS)
# The shares of active, inactive and inconclusive entries below differ from those in the screen. A potency beside an inconclusive call is a rough fit, not a confirmed value. Activity calls are given as the source filed them. Calls follow the shape of the dose curve; as a rule, active = well fitted curve in the direction sought with a large enough effect; inconclusive = small, poorly fitted or top-dose-only effect, or another doubt; inactive = no such curve, though single readings can be large; an effect the other way counts as inactive or inconclusive.
# How the values were obtained:
# [1] = P-glycoprotein substrates identified in KB-8-5-11 adenocarcinoma cell line, qHTS therapeutic library screen (AID 1346987); also: nearly all actives have a fitted effect of over 65% in size
# Summary of the method: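 In this qHTS, P-gp-rich KB-8-5-11 cells received library compounds across a concentration range. Viability was quantified by luminescence after 72 h at 37 degree C.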
# [2] = Primary qHTS for inhibitors of nuclear receptor binding SET domain protein 2 (NSD2) in an isogenic RCH-ACV NSD2 p.E1099K mutant (9B) (AID 1645876); also: nearly all actives have a fitted effect of over 70% in size
# [3] = Primary qHTS for inhibitors of nuclear receptor binding SET domain protein 2 (NSD2) in an RCH-ACV wild type WT cells (2C) (AID 1645877); conditions: activity change, negative = cell killing: at 44.9 µM (top of the series); also: nearly all actives have a fitted effect of over 70% in size
# CRL-7250 = normal cell line; test: Cytotoxic Profiling of Annotated Libraries Using Quantitative High-Throughput Screening (AID 1296008); conditions: Five cell lines viability, CellTiter-Glo ATP luminescence, 48-72 h; max response: hits give low values; also: nearly all actives have a fitted effect of over 60% in size; as to max response: % is scaled to controls: 0 for no effect and ±100 for the full control effect
# Summary of the method: (§1)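 Compounds were pin-transferred onto cells and incubated 48 or 72 hr at 37 degree Celsius, 95% humidity. CellTiter-Glo was added, plates sat 10 min at room temperature, then ATP-coupled luminescence was imaged as the viability read-out.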
# HEK293 = test: as above; conditions: Five cell lines viability, CellTiter-Glo ATP luminescence, 48-72 h; max response: hits give low values
# Summary of the method: as §1
# NIH3T3 = test: as above; conditions: Five cell lines viability, CellTiter-Glo ATP luminescence, 48-72 h; max response: hits give low values
# Summary of the method: as §1
# CAOV3 = test: Primary qHTS to identify gynecologic anti-cancer compounds using libraries of approved drugs and bioactive compounds (AID 1345084); conditions: Gynecologic cancer cell panel viability, ATPlite luminescence, 48 h; series mostly up to 57.5 µM; also: nearly all actives have a fitted effect of over 55% in size; as to activity change, negative = cytotoxicity: % is scaled to controls: 0 for no effect and ±100 for the full control effect
# Summary of the method: (§2)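 Luminescence from the ATPlite ATP-monitoring reagent indicates viable cell number; lower signal means cytotoxicity. Cells received compound 16 h after seeding and were exposed for 48 h across five concentrations.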
# OV90 = test: as above; conditions: Gynecologic cancer cell panel viability, ATPlite luminescence, 48 h; series mostly up to 57.5 µM
# Summary of the method: as §2
# PA-1 = test: as above; conditions: Gynecologic cancer cell panel viability, ATPlite luminescence, 48 h; series mostly up to 57.5 µM
# Summary of the method: as §2
# [4] = Primary fluorescence-based thiol-reactive (MSTI) qHTS assay for identification of artifact compounds. (AID 1845221);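 also: thiol-reactive compounds lower the probe fluorescence signal; nearly all actives have a fitted effect of over 65% in size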
# Summary of the method: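 Compounds were incubated 1 h at room temperature in the dark with the MSTI probe (4 uM) in PBS pH 7.4, 2% DMSO. Signals were normalized between Acetyl-MSTI and MSTI.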
# KB-3-1 = test: Cytotoxic Profiling of Annotated Libraries Using Quantitative High-Throughput Screening (AID 1296008); conditions: Five cell lines viability, CellTiter-Glo ATP luminescence, 48-72 h; max response: hits give low values; also: nearly all actives have a fitted effect of over 60% in size; as to max response: % is scaled to controls: 0 for no effect and ±100 for the full control effect
# Summary of the method: as §1
# [5] = system: Zika virus NS2B-NS3 protease (unlinked complex); test: Primary screen GU Rhodamine qHTS for Zika virus inhibitors: Unlinked NS2B-NS3 protease assay (AID 1347159); also: nearly all actives have a fitted effect of over 60% in size
# Summary of the method: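 In dose–response format, inhibition of unlinked protease (25 nM) was measured with 1.5 microM bis-peptide Rhodamine110 substrate. Aprotinin served as the intraplate control.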
# C33A = test: Primary qHTS to identify gynecologic anti-cancer compounds using libraries of approved drugs and bioactive compounds (AID 1345084); conditions: Gynecologic cancer cell panel viability, ATPlite luminescence, 48 h; series mostly up to 57.5 µM; also: nearly all actives have a fitted effect of over 55% in size; as to activity change, negative = cytotoxicity: % is scaled to controls: 0 for no effect and ±100 for the full control effect
# Summary of the method: as §2
# CASKI = test: as above; conditions: Gynecologic cancer cell panel viability, ATPlite luminescence, 48 h; activity change, negative = cytotoxicity: at 57.5 µM (top of the series)
# Summary of the method: as §2
# Es-2 = test: as above; conditions: Gynecologic cancer cell panel viability, ATPlite luminescence, 48 h; series mostly up to 57.5 µM
# Summary of the method: as §2
# Hek293T = test: as above; conditions: Gynecologic cancer cell panel viability, ATPlite luminescence, 48 h, control line for the selectivity index; series mostly up to 57.5 µM
# Summary of the method: as §2
# JEG-3 = test: as above; conditions: Gynecologic cancer cell panel viability, ATPlite luminescence, 48 h; series mostly up to 57.5 µM
# Summary of the method: as §2
# SKOV3 = test: as above; conditions: Gynecologic cancer cell panel viability, ATPlite luminescence, 48 h; series mostly up to 57.5 µM
# Summary of the method: as §2
# Tov-21-G = test: as above; conditions: Gynecologic cancer cell panel viability, ATPlite luminescence, 48 h; activity change, negative = cytotoxicity: at 57.5 µM (top of the series)
# Summary of the method: as §2
# Tov112D = test: as above; conditions: Gynecologic cancer cell panel viability, ATPlite luminescence, 48 h; activity change, negative = cytotoxicity: at 57.5 µM (top of the series)
# Summary of the method: as §2
# Potency is read from the fitted curve at half-maximal effect; tags tell the direction and shape of the fitted curve.
compound,measurement,setting,value
O=C(CCCN1CCC(O)(c2ccc(Br)cc2)CC1)c1ccc(F)cc1,Potency,[1],"inconclusive: 3.5 µM [inhibitor, partial curve]"
same,Potency,[2],"inconclusive: 16.8 µM [inhibitor, single point]"
same,Potency,[3],active: 18.8 µM
same,max response,CRL-7250,inactive: 2.7%
same,Potency,HEK293,"inconclusive: 21.1 µM [inhibitor, single point]"
same,Potency,NIH3T3,"inconclusive: 26.6 µM [inhibitor, partial curve, poor fit]"
same,Potency,CAOV3,"inconclusive: 39.8 µM [cytotoxic, single point]"
same,Potency,OV90,"inconclusive: 31.6 µM [cytotoxic, single point]"
same,Potency,PA-1,"inconclusive: 28.2 µM [cytotoxic, single point]"
COc1ccccc1N1CCN(CC[C@@](C)(C(=O)C2CCCCC2)c2ccccc2)CC1,Potency,[1],"inconclusive: 23.1 µM [inhibitor, partial curve]"
same,Potency,[4],inactive
same,Potency,CRL-7250,"inconclusive: 18.4 µM [inhibitor, single point]"
same,Potency,HEK293,"inconclusive: 2.06 µM [inhibitor, partial curve, poor fit]"
same,Potency,KB-3-1,"inconclusive: 23.1 µM [inhibitor, single point]"
C/C=C(\C)C(=O)O[C@H]1C=C(CO)C(=O)[C@H](OC(C)=O)[C@H]1C(C)C,Potency,[1],"inconclusive: 12.8 µM [inhibitor, single point]"
same,Potency,[5],"inconclusive: 25.1 µM [inhibitor, full curve, poor fit]"
same,Potency,[4],inactive
same,Potency,CRL-7250,"inconclusive: 14.3 µM [inhibitor, single point]"
same,Potency,HEK293,active: 8.05 µM
same,Potency,NIH3T3,"inconclusive: 20.2 µM [inhibitor, single point]"
same,Potency,C33A,active: 12.6 µM
same,Potency,CAOV3,"inconclusive: 20 µM [cytotoxic, single point]"
same,Potency,CASKI,"inconclusive: 28.2 µM [cytotoxic, single point]"
same,Potency,Es-2,"inconclusive: 20 µM [cytotoxic, single point]"
same,Potency,Hek293T,"inconclusive: 28.2 µM [cytotoxic, single point]"
same,Potency,JEG-3,"inconclusive: 11.2 µM [cytotoxic, single point]"
same,Potency,PA-1,"inconclusive: 28.2 µM [cytotoxic, single point]"
same,Potency,SKOV3,"inconclusive: 11.2 µM [cytotoxic, partial curve, poor fit]"
same,Potency,Tov-21-G,"inconclusive: 8.91 µM [cytotoxic, partial curve, poor fit]"
C=CC(C)(O)CC/C=C(\C)COC1O[C@H](CO)[C@@H](O)[C@H](O)[C@H]1O (some centres not stated),Potency,[5],active: 12.6 µM
same,Potency,[4],active: 2.93 µM
same,max response,CRL-7250,inactive: -13.2%
same,max response,HEK293,inactive: 0.0631%
same,max response,NIH3T3,inactive: 3.77%
same,Potency,SKOV3,inactive
same,Potency,Tov-21-G,inactive
C=C1C(=O)O[C@@H]2C[C@@]3(C)C[C@@H](O)C[C@H](C)C3=C[C@H]12,Potency,[1],"inconclusive: 32.6 µM [inhibitor, partial curve, poor fit]"
same,Potency,[2],active: 7.28 µM
same,Potency,CRL-7250,"inconclusive: 1.46 µM [inhibitor, partial curve, poor fit]"
same,Potency,HEK293,"inconclusive: 29.1 µM [inhibitor, single point]"
same,Potency,NIH3T3,"inconclusive: 23.1 µM [inhibitor, single point]"
same,Potency,Es-2,"inconclusive: 39.8 µM [cytotoxic, single point]"
same,Potency,Tov-21-G,"inconclusive: 28.2 µM [cytotoxic, single point]"
C=C1C(=O)OC2C1CCC(=C)C1CC(OC(C)=O)C(=C)C12 (configuration not stated),Potency,[1],"inconclusive: 29.1 µM [inhibitor, single point]"
same,Potency,[5],active: 31.6 µM
same,Potency,[4],active: 18.9 µM
same,Potency,CRL-7250,active: 18.4 µM
same,Potency,HEK293,active: 11.6 µM
same,Potency,NIH3T3,"inconclusive: 29.1 µM [inhibitor, single point]"
same,Potency,C33A,"inconclusive: 20 µM [cytotoxic, partial curve, poor fit]"
same,Potency,CAOV3,"inconclusive: 20 µM [cytotoxic, partial curve, poor fit]"
same,Potency,CASKI,"inconclusive: 39.8 µM [cytotoxic, single point]"
same,Potency,Es-2,"inconclusive: 39.8 µM [cytotoxic, single point]"
same,Potency,Hek293T,"inconclusive: 39.8 µM [cytotoxic, single point]"
same,Potency,JEG-3,"inconclusive: 39.8 µM [cytotoxic, single point]"
same,Potency,OV90,"inconclusive: 39.8 µM [cytotoxic, single point]"
same,Potency,PA-1,"inconclusive: 39.8 µM [cytotoxic, single point]"
same,Potency,Tov-21-G,"inconclusive: 39.8 µM [cytotoxic, single point]"
CC(N=C(NC#N)Nc1ccncc1)C(C)(C)C (configuration not stated),outcome,CRL-7250,inactive
same,Potency,HEK293,"inconclusive: 8.41 µM [inhibitor, partial curve, poor fit]"
same,max response,NIH3T3,inactive: 0.852%
same,Potency,JEG-3,"inconclusive: 35.5 µM [rising, single point]"
same,Potency,PA-1,inactive
same,Potency,SKOV3,inactive
same,Potency,Tov-21-G,inactive
CC(=O)c1cc(C(=O)N[C@@H](C)Cn2ccc(-c3ccc(C#N)c(Cl)c3)n2)[nH]n1,Potency,[1],"inconclusive: 16.4 µM [inhibitor, partial curve]"
same,Potency,[2],"inconclusive: 18.3 µM [inhibitor, single point]"
same,Potency,[3],"inconclusive: 25.8 µM [inhibitor, single point]"
same,Potency,CRL-7250,"inconclusive: 29.1 µM [inhibitor, single point]"
same,Potency,HEK293,active: 23.1 µM
same,Potency,NIH3T3,"inconclusive: 0.058 µM [inhibitor, full curve, poor fit]"
same,Potency,C33A,"inconclusive: 39.8 µM [cytotoxic, single point]"
same,Potency,Hek293T,"inconclusive: 28.2 µM [cytotoxic, single point]"
same,Potency,OV90,"inconclusive: 25.1 µM [cytotoxic, partial curve, poor fit]"
same,Potency,SKOV3,"inconclusive: 39.8 µM [cytotoxic, single point]"
COC1CC(=O)C23C(=O)NC(CC(C)C)C2C(C)C(C)=CC3/C=C(\C)CCCC1O (configuration not stated),Potency,[2],"inconclusive: 14.2 µM [inhibitor, single point]"
same,Potency,[3],"inconclusive: 15.9 µM [inhibitor, single point]"
same,Potency,[4],inactive
same,max response,CRL-7250,inactive: -6.23%
same,Potency,HEK293,"inconclusive: 8.93 µM [inhibitor, partial curve, poor fit]"
same,max response,NIH3T3,inactive: -14.9%
same,Potency,C33A,inactive
same,Potency,PA-1,inactive
CCCCN(CCCC)CC(O)c1cc(Cl)cc2c1-c1ccc(Cl)cc1/C2=C/c1ccc(Cl)cc1 (configuration not stated),Potency,[1],"inconclusive: 29.1 µM [inhibitor, single point]"
same,Potency,CRL-7250,"inconclusive: 33.5 µM [inhibitor, single point]"
same,Potency,HEK293,"inconclusive: 29.9 µM [inhibitor, single point]"
same,Potency,NIH3T3,"inconclusive: 26.6 µM [inhibitor, single point]"
same,Potency,Es-2,inactive
same,Potency,OV90,"inconclusive: 14.1 µM [cytotoxic, partial curve, poor fit]"
same,Potency,SKOV3,"inconclusive: 8.91 µM [cytotoxic, single point]"
C[C@@H]1O[C@@H](O[C@H]2[C@@H]3C=CO[C@@H](O[C@@H]4O[C@H](CO)[C@@H](O)[C@H](O)[C@H]4O)[C@@H]3[C@@]3(CO)O[C@@H]23)[C@H](O)[C@H](OC(=O)/C=C/c2ccccc2)[C@H]1O,Potency,[2],"inconclusive: 6.82 µM [inhibitor, single point]"
same,Potency,CRL-7250,"inconclusive: 5.44 µM [inhibitor, single point]"
same,Potency,HEK293,"inconclusive: 6.85 µM [inhibitor, single point]"
same,Potency,NIH3T3,"inconclusive: 4.85 µM [inhibitor, partial curve, poor fit]"
same,Potency,PA-1,"inconclusive: 12.6 µM [cytotoxic, single point]"
same,Potency,SKOV3,"inconclusive: 11.2 µM [rising, single point]"
same,Potency,Tov-21-G,inactive
O=C1c2c(O[C@@H]3O[C@H](CO)[C@@H](O)[C@H](O)[C@H]3O)cc(O)cc2OC1(O)Cc1ccc(O)cc1 (some centres not stated),Potency,[1],"inconclusive: 12.6 µM [inhibitor, single point]"
same,Potency,[5],inactive
same,Potency,[4],"inconclusive: 9.22 µM [inhibitor, partial curve]"
same,Potency,CRL-7250,"inconclusive: 15.9 µM [inhibitor, single point]"
same,Potency,HEK293,"inconclusive: 10 µM [inhibitor, single point]"
same,Potency,NIH3T3,"inconclusive: 14.2 µM [inhibitor, single point]"
same,Potency,C33A,"inconclusive: 17.8 µM [cytotoxic, single point]"
same,Potency,CAOV3,active: 10 µM
same,Potency,CASKI,"inconclusive: 1.26 µM [rising, partial curve, poor fit]"
same,Potency,Hek293T,"inconclusive: 17.8 µM [cytotoxic, single point]"
same,Potency,SKOV3,"inconclusive: 8.91 µM [cytotoxic, single point]"
same,Potency,Tov112D,"inconclusive: 12.6 µM [cytotoxic, single point]"
C=CCC/C=C/C#CCCCCCCCC[C@H]1C(=O)O[C@H](C)[C@@H]1O,Potency,[5],"inconclusive: 35.5 µM [inhibitor, partial curve, poor fit]"
same,Potency,[2],"inconclusive: 20.1 µM [inhibitor, single point]"
same,Potency,[3],"inconclusive: 20.1 µM [inhibitor, single point]"
same,max response,CRL-7250,inactive: 0.985%
same,max response,HEK293,inactive: -11.8%
same,max response,NIH3T3,inactive: 0.0642%
same,Potency,CASKI,inactive
same,Potency,Hek293T,inactive
